{"source": "PubChem BioAssay (NCATS)", "note": "Where “and” joins values, the source holds several entries; their conditions need not be identical. Identical values can stand only once. The inconclusive results got no clear call from the source; some entries with a clear call stand among them for comparison. Where the call is inconclusive, the potency comes from a doubtful curve fit. Where a structure was tested more than once in an assay, its records may differ in their call. Calls of active or inactive are those of the source. Calls come from the whole dose curve; as a rule, active = well fitted curve in the direction sought with a large enough effect; inconclusive = small, poorly fitted or top-dose-only effect, or another doubt; inactive = no such curve, though single readings can be large; an effect the other way counts as inactive or inconclusive. Potency is the fitted concentration of half-maximal effect; tags give direction and shape of the fitted curve."}
{"experiment": "qHTS for Inhibitors of Plasmodium falciparum (GB4) proliferation (AID 504315); note: nearly all actives have a fitted effect of over 50% in size", "conditions": "P. falciparum GB4 in erythrocytes, SYBR Green DNA, 72 h; activity change, negative = inhibition: at 6.7 µM (top of the series)", "method_in_brief": "(§1)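 Erythrocytes infected with P. falciparum line (0.3% parasitemia, 2.5% hematocrit final) incubated with compounds 72 h at 37 °C, 5% CO2; SYBR Green lysis buffer added, fluorescence read next day. Normalized to 0.29 uM artemisinin and DMSO.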"}
{"smiles": "COC(=O)CCCC1=CC2=C(c3ccccc3)C(=O)C(C)(OC(=O)C3CCCC3)C(=O)C2=CN1C(CO)CO", "note": "(stereo unspecified)", "Potency": "inactive"}
{"smiles": "Nc1ccccc1C(=O)C=Cc1ccc2c(c1)OCO2", "Potency": "inconclusive: 1.69 µM [inhibitor, single point] and inconclusive: 3.79 µM [inhibitor, single point]"}
{"smiles": "CC(C)(C)OC(=O)NCCCC1=CC2=CC(=O)C(C)(OC(=O)c3cccs3)C(=O)C2=CO1", "note": "(stereo unspecified)", "Potency": "inactive"}
{"smiles": "COc1ccc(O[C@H]2C=C[C@@H](c3ccccc3)O[C@H]2CON=C(C)CCN2CCCc3nc(C)c(C)cc32)cc1", "Potency": "inconclusive: 2.13 µM [inhibitor, single point]"}
{"smiles": "C=C(C)C(O)C=Cc1ccccc1OC", "note": "(stereo unspecified)", "Potency": "inconclusive: 1.69 µM [inhibitor, partial curve]"}
{"smiles": "CC[C@H](C)[C@@H](NC(=O)O[C@@H]1C(=O)c2cc(Br)ccc2O[C@H]1c1cccc(OC)c1)C(=O)OC", "Potency": "inactive"}
{"experiment": "qHTS for Inhibitors of Plasmodium falciparum (7G8) proliferation (AID 504316); note: nearly all actives have a fitted effect of over 65% in size", "conditions": "P. falciparum 7G8 in erythrocytes, SYBR Green DNA, 72 h; activity change, negative = inhibition: at 6.7 µM (top of the series)", "method_in_brief": "as §1"}
{"smiles": "CCCC[C@]12Cc3c(ccc4ccccc34)[C@H](O1)C1=C(O2)C(=O)c2ccccc2C1=O", "Potency": "active: 1.51 µM"}
{"smiles": "Cc1ccccc1Nc1oc(-c2ccccc2)nc1CCc1ccccc1", "Potency": "active: 1.69 µM"}
{"smiles": "CC(C)CON=C1C[C@@H](O)[C@@H](O)[C@@H]2[C@H]3C(=O)N(C4CCCCC4)C(=O)[C@@H]3CC[C@H]12", "Potency": "inconclusive: 2.39 µM [inhibitor, partial curve, poor fit]"}
{"smiles": "COc1ccc2c(c1)O[C@H](c1ccc3c(c1)OCO3)[C@@H](OC(=O)Nc1cc(OC)c(OC)c(OC)c1)C2=O", "Potency": "inactive"}
{"smiles": "OC[C@H]1O[C@H](C#Cc2ccccc2)C=C[C@H]1O", "Potency": "inactive"}
{"smiles": "CCCCCCC(=O)Cc1cc(OC)c(OC)cc1C=C(C(=O)OCC)C(=O)OCC", "Potency": "inactive"}
{"smiles": "Cc1cc2c(c(=O)n1-c1ccccc1)[C@H]1O[C@](c3ccsc3)(Cc3cc(C#N)ccc31)O2", "Potency": "inconclusive: 4.26 µM [inhibitor, single point]"}
{"smiles": "COc1ccc(C=CC2=CC3(C)CC2(C)C(c2ccc(OC)cc2)CC3=O)cc1", "note": "(stereo unspecified)", "Potency": "active: 1.69 µM"}
{"smiles": "COc1ccc(OC[C@H]2CN3[C@H](c4ccc(Br)cc4)[C@H](C)CC[C@H]3C(=O)O2)cc1", "Potency": "inconclusive: 536 nM [inhibitor, partial curve, poor fit] and inconclusive: 3.01 µM [inhibitor, partial curve, poor fit]"}
{"smiles": "C=CC1=C2C=C(C3CC3)N(Cc3ccccc3)C=C2C(=O)C(C)(OC(=O)c2ccco2)C1=O", "note": "(stereo unspecified)", "Potency": "inconclusive: 1.9 µM [inhibitor, single point]"}
{"smiles": "CC(Nc1oc(-c2ccccc2)nc1-c1ccccc1)c1ccccc1", "note": "(stereo unspecified)", "Potency": "inconclusive: 3.38 µM [inhibitor, single point] and inconclusive: 1.9 µM [inhibitor, partial curve]"}
{"smiles": "COC(=O)CC=C[C@@H](C)[C@H](OC)c1ccccc1Br", "Potency": "active: 1.9 µM"}
{"smiles": "COC(=O)C1=C(C)N(Cc2ccccc2)C(=S)NC1c1cccc(F)c1", "note": "(stereo unspecified)", "Potency": "inactive"}
{"smiles": "C=CCN1c2ccccc2[C@]23C[C@@H](C(=O)OC)N(C(=O)CC(C)C)C2=NC(C(=O)OC)=C(C(=O)OC)[C@H]13", "Potency": "inconclusive: 1.9 µM [inhibitor, partial curve, poor fit]"}
{"smiles": "COC(=O)CC1c2ccccc2C(Cc2ccc3c(c2)OCO3)=C(C)N1C(=O)OC", "note": "(stereo unspecified)", "Potency": "inconclusive: 4.26 µM [inhibitor, single point] and inconclusive: 1.69 µM [inhibitor, single point]"}
{"smiles": "COc1cc2c(cc1OC)[C@@H]1O[C@](c3ccsc3)(C2)Oc2cc(C)n(Cc3ccccc3)c(=O)c21", "Potency": "active: 1.51 µM"}
{"smiles": "CC1(OC(=O)c2ccc(Cl)nc2)C(=O)C=C2C=C(C3CC3)OC=C2C1=O", "note": "(stereo unspecified)", "Potency": "inactive"}
{"smiles": "COc1ccc(-c2nc3c(c4c2C[C@H](c2ccccc2)OC4)CN(C(=O)C2CC2)CC3)c(C)c1", "Potency": "inconclusive: 3.01 µM [inhibitor, partial curve, poor fit] and inconclusive: 1.69 µM [inhibitor, partial curve] and inconclusive: 1.69 µM [inhibitor, partial curve, poor fit]"}
{"smiles": "CCN1C(=O)NC(c2ccco2)C(C(=O)OC)=C1C", "note": "(stereo unspecified)", "Potency": "inactive"}
{"smiles": "CCCCc1nc2c(c3c1C[C@H](C)OC3)CN(S(=O)(=O)c1ccc(C)cc1)CC2", "Potency": "inconclusive: 1.51 µM [inhibitor, single point] and inactive"}
{"smiles": "C[C@H]1C[C@@H](C)O[C@@]2(C1)C(=O)N(Cc1ccccc1C(F)(F)F)c1ccccc12", "Potency": "inconclusive: 3.01 µM [inhibitor, single point]"}
{"smiles": "CC1(C)CC(=O)C2=C(C1)O[C@@]1(CCCCN3C(=O)c4ccccc4C3=O)Cc3ccccc3[C@H]2O1", "Potency": "active: 1.51 µM"}
{"smiles": "CC(=O)OC[C@H]1O[C@H](C#Cc2ccc(C(C)(C)C)cc2)C=C[C@H]1OC(C)=O", "Potency": "active: 1.69 µM"}
{"smiles": "CC1(C)O[C@@H](C(O)(c2cc(F)c(F)c(F)c2)c2cc(F)c(F)c(F)c2)[C@H](C(O)(c2cc(F)c(F)c(F)c2)c2cc(F)c(F)c(F)c2)O1", "Potency": "active: 0.379 µM"}
{"smiles": "Nc1ccccc1C(=O)C=Cc1ccc2c(c1)OCO2", "Potency": "inconclusive: 2.13 µM [inhibitor, single point] and inconclusive: 1.51 µM [inhibitor, partial curve, poor fit]"}
{"smiles": "CCOC(=O)CN1C(=O)NC(c2cccc(C(F)(F)F)c2)C(C(C)=O)=C1C", "note": "(stereo unspecified)", "Potency": "inactive"}
{"smiles": "COC(=O)CC=C[C@@H](C)[C@H](OC)c1cc(F)ccc1Br", "Potency": "inactive"}
{"smiles": "COc1ccc(O[C@H]2C=C[C@@H](c3ccccc3)O[C@H]2CON=C(C)CCN2CCCc3nc(C)c(C)cc32)cc1", "Potency": "active: 1.51 µM"}
{"smiles": "CC[C@H](C)[C@@H](NC(=O)O[C@@H]1C(=O)c2cc(Br)ccc2O[C@H]1c1cccc(OC)c1)C(=O)OC", "Potency": "inactive"}
{"smiles": "COc1cc2c(cc1OC)[C@@H]1O[C@](c3ccsc3)(C2)OC2=C1C(=O)OC1(CCCCC1)C2", "Potency": "inconclusive: 1.9 µM [inhibitor, partial curve]"}
